Experimental data as given in publication PMC4336329 (PLoS ONE, 2015).
The whole screen tested about 310,000 compounds, of which about 2,200 (0.71%) showed an effect of 50% or more. Effects have a minus sign here. The list shows a part of the results.

Molecular target: human ether-à-go-go-related gene (hERG) potassium channel (human, UniProt Q12809)
Assay: primary screen, population patch clamp on CHO cells stably expressing hERG

human ether-à-go-go-related gene (hERG) potassium channel, sequence (Q12809 whole entry, looked up): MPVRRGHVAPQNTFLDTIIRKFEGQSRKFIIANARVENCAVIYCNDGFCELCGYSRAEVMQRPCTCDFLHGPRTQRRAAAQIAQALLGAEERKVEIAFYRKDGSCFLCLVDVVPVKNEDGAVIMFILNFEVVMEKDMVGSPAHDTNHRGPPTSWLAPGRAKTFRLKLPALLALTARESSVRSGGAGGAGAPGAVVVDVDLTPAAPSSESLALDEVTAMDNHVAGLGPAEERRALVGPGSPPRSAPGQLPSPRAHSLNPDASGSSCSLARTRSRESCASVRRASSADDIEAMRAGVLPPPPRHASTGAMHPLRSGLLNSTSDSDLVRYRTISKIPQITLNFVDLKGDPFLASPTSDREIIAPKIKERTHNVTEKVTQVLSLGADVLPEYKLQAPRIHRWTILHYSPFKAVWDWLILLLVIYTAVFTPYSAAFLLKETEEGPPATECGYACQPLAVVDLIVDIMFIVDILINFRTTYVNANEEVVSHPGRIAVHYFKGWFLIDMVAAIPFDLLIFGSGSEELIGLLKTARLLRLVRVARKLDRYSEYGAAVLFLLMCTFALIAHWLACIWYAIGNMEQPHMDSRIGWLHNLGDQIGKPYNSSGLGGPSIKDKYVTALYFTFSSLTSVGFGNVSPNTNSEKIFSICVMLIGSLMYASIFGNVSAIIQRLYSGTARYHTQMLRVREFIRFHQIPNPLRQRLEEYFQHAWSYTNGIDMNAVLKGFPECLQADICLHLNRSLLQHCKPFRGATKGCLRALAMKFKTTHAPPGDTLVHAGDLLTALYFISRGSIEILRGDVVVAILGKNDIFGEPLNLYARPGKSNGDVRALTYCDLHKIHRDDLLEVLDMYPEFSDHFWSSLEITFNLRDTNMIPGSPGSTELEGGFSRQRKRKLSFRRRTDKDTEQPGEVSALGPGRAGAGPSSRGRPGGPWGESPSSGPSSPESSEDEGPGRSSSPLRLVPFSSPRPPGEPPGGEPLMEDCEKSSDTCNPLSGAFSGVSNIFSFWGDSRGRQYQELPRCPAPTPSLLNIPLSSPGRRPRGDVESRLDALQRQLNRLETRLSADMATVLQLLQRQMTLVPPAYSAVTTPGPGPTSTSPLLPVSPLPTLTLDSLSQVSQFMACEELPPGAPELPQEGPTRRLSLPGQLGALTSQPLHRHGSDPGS

| SMILES | hERG current change (%, negative = inhibition) at 1uM [%] |
| --- | --- |
| CN(C)CCNC(=O)c1cccn(Cc2cc(C(F)(F)F)cc(C(F)(F)F)c2)c1=O | -3.69 |
| Br.O=[N+]([O-])c1cccc(-n2nnnc2CN2CCCC2)c1 | 3.25 |
| C#CCOCCOCCOCCNc1nc(N2CCN(C(=O)[C@H]([C@@H](C)CC)n3cc([C@@H](N)Cc4ccc(O)cc4)nn3)CC2)nc(N2CCN(C(=O)[C@H]([C@@H](C)CC)n3cc([C@@H](N)Cc4ccc(O)cc4)nn3)CC2)n1.Cl | 7.88 |
| CC(C)(C)c1ccc(OCCC(=O)NCC(c2cccs2)N2CCOCC2)cc1 (stereo not shown) | -7.09 |
| O=C(Cn1ncc2c(=O)oc3ccccc3c21)N1CCN(C(=O)c2ccco2)CC1 | -37 |
| COc1ccc(-c2nn(-c3ccccc3)cc2C(=O)Nc2ccc(C(=O)O)cc2)cc1OC | 13.5 |
| Cn1c(=NC(=O)CCS(=O)(=O)c2ccccc2)sc2cc(F)ccc21 | 13.6 |
| CCOC(=O)C1=C(C)N=C2c3ccccc3C(=O)C2C1c1ccc(Cl)cc1 (stereo not shown) | 10.9 |
| CCc1ccc(NC(=O)CC2NCCNC2=O)cc1 (stereo not shown) | 9.3 |
| CCn1cc(C(=O)O)c(=O)c2cnc(N3CCN(C(=S)NC(=O)c4ccc(Cl)cc4Cl)CC3)nc21 | 14.2 |
| CCCCN(C(=O)CCCc1nc2ccccc2s1)c1c(N)n(CCCC)c(=O)[nH]c1=O | 0.792 |
| O=C(Cc1csc(-c2ccccc2)n1)NCc1cccs1 | 8.81 |
| CCCNC(=O)C1CCN(S(=O)(=O)c2cccs2)CC1 | 20.6 |
| CN(CC(=O)NCc1ccc(F)cc1)S(=O)(=O)c1ccc2c(c1)c(=O)n(C)c(=O)n2C | 4.64 |
| O=C(CSc1nnc(SCc2ccccc2)s1)N/N=C/c1ccc(C(=O)O)cc1 | 10.3 |
| Cc1ccc([N+](=O)[O-])cc1S(=O)(=O)Nc1ccc(C(=O)N2CCN(C(=O)c3ccco3)CC2)cc1 | 13.4 |
| COCC(C)NC(=O)CCS(=O)(=O)c1nc(-c2ccc(OC)cc2)cc(C(F)(F)F)n1 (stereo not shown) | 15.6 |
| CCc1ccc(OC(=O)c2cccnc2)cc1 | 16.7 |
| Fc1ccccc1OCCSc1nc2ccccc2o1 | 12.6 |
| Cc1ccc(S(=O)(=O)NCC(=O)Nc2ccc3c(c2)OCO3)cc1 | 8.92 |
| Cc1cc(C)cc(C(=O)NCC(=O)OCN2C(=O)c3ccccc3C2=O)c1 | 11.5 |
| Cc1cc(C)cc(OCCn2nnc3ccccc32)c1 | 17.4 |

| SMILES | hERG current change (%, negative = inhibition) at 1uM [%] |
| --- | --- |
| O=C(Nc1ccc2ccccc2n1)c1ccccc1Cl | 8.41 |
| O=S(=O)(NCCc1ccccc1F)c1cccc(S(=O)(=O)N2CCOCC2)c1 | 8.53 |
| O=C(NCCc1ccccc1)/C(=C\c1cccc([N+](=O)[O-])c1)NC(=O)c1ccco1 | -50.6 |
| COc1ccc(COc2cccnc2N)cc1 | 16.7 |
| Clc1ccc(-c2nc(N3CCOCC3)nc3ccccc23)cc1 | 12.3 |
| CCn1c(SCC(=O)OC)nnc1-c1ccncc1 | 8 |
| CCN(CC)C(=O)Cn1cc(C(=O)C(=O)NCC2COc3ccccc3O2)c2ccccc21 (stereo not shown) | -10.6 |
| COc1cc2c(cc1OC)CN(C(=O)CCNS(=O)(=O)c1ccc(Br)cc1)CC2 | 4.55 |
| O=C(NCc1cccs1)C1CCN(S(=O)(=O)c2cccc3cccnc23)CC1 | 6.69 |
| Cc1cc(NC(=O)C2CCCC2)n(-c2nc3ccccc3[nH]2)n1 | 7.38 |
| CCOc1ccc(S(=O)(=O)N2CCCCC2)cc1NC(=O)Cc1cccc(C(F)(F)F)c1 | 10.6 |
| COc1ccc(CC(=O)NCC2COc3ccccc3O2)cc1 (stereo not shown) | 4.8 |
| CCS(=O)(=O)CCn1c([N+](=O)[O-])cnc1C | 8.99 |
| NC(=O)c1c(NC(=O)c2ccc([N+](=O)[O-])o2)sc2c1CCCC2 | 19.9 |
| CCc1nn(C(CC)C(=O)NCCCc2ccccc2)c(=O)c2cc3occc3n12 (stereo not shown) | 4.25 |
| O=C1NN=C(c2ccc(Cl)cc2)CC1c1cccc(Br)c1 (stereo not shown) | 12 |
| CCCCn1nnnc1SCC(=O)Nc1ccc(N(C)C)cc1 | 12.1 |
| O=C(CNC(=O)c1ccc2c(c1)OCCO2)N/N=C/c1ccc(O)cc1O | 7.74 |
| COc1ccc(N2CCN(C(=O)CN3C(=O)NC(c4ccc(OC)cc4)(c4ccc(OC)cc4)C3=O)CC2)cc1 | 5.72 |
| CCOC(=O)Cc1csc(NC(=O)c2cc(C)on2)n1 | 10.8 |
| COc1ccc(CCN2CC(C(=O)Nc3cc(F)ccc3F)CC2=O)cc1OC (stereo not shown) | 12.4 |
| CN(C)C(/C=C/Nc1ccccc1F)=C(C#N)C#N | 12.7 |

| SMILES | hERG current change (%, negative = inhibition) at 1uM [%] |
| --- | --- |
| CN1CC(C(=O)c2ccc(Cl)cc2)C(c2ccccc2F)C1 (stereo not shown) | -11.5 |
| CSc1nsc(SC)c1NC(=O)OCc1ccccc1 | 12.6 |
| Cc1ccc(S(=O)(=O)N2CCCC2CNC(=O)C(=O)Nc2ccc(F)cc2F)cc1 (stereo not shown) | 6.03 |
| Cc1ccc(NC(=O)NCCCN2CCCC2=O)cc1C | 18.1 |
| CCOC(=O)C1=C(O)C(=O)N(Cc2cccnc2)C1c1ccc(OC)cc1 (stereo not shown) | 17.3 |
| COc1ccc(S(=O)(=O)N(C)CC(=O)NCc2ccccc2)cc1OC | 18.8 |
| O=C(NCCC1=CCCCC1)c1cc(S(=O)(=O)N2CCOCC2)c(Cl)cc1Cl | 3.7 |
| O=C(NCCO)c1ccc(Oc2ccc(C(F)(F)F)cc2[N+](=O)[O-])cc1 | 10.2 |
| COc1ccc(CCNC(=O)c2c(C)nn(-c3ccccc3)c2Cl)cc1OC | 15.8 |
| CCOC(=O)c1c(NC(=O)CSC(=S)N2CCOCC2)sc(C)c1C | 1.75 |
| Cc1ccccc1C(=O)NNC(=O)C(=O)Nc1cccc(Cl)c1C | 5.31 |
| Cc1ccc(-c2nnc(SCC(=O)N/N=C/c3ccccc3C(=O)O)n2-c2ccc(C)cc2)cc1 | 10.2 |
| CC1(C)CC(NC(=O)CCC2CCCC2)CC(C)(C)N1 | -1.96 |
| Nc1nnnn1/N=C/c1cc(Cl)cc(Cl)c1O | 18.1 |
| Cn1c(O)c(/C=N/NC(=O)c2ccncc2)c(=O)n(C)c1=S | 13.8 |
| COc1cccc(CN(C)CC(=O)Nc2cccc(S(N)(=O)=O)c2)c1OC | -0.0832 |
| O=[N+]([O-])c1ccc(N/N=C/c2ccc(OCc3cccc4ccccc34)cc2)nc1 | 9.93 |
| CC(=O)Nc1cccc(-c2nnc3n2CC(C)S3)c1 (stereo not shown) | 9.88 |
| N#C/C(=C\C1=C(N2CCOCC2)C(=C/c2cccc([N+](=O)[O-])c2)/CC1)C(=O)Nc1ccccc1F | 12.2 |
| CC(NC(=O)COC(=O)c1ccc(CO)cc1)C1CC2CCC1C2 (stereo not shown) | 12.8 |
| Cc1nnc(SCCn2c(N3CCN(Cc4ccccc4)CC3)nc3c2c(=O)[nH]c(=O)n3C)s1 | -17.3 |
| Cc1cc(C)c(NC(=O)C2CCCN2CCOC(=O)c2ccccc2)c(C)c1.Cl (stereo not shown) | 12.1 |

| SMILES | hERG current change (%, negative = inhibition) at 1uM [%] |
| --- | --- |
| Cc1c(Br)c([N+](=O)[O-])nn1CC(=O)NCc1ccco1 | 3.93 |
| CCOC(=O)N1CCN(CC(O)COc2c(C)cc(C)cc2C)CC1.Cl (stereo not shown) | 3.11 |
| C#Cc1ccc([C@H]2C=C(C(=O)N3CCOCC3)O[C@@H](OCc3ccc(CO)cc3)C2)cc1 | 7.9 |
| COc1ccc(CC(=O)N2CCNC2=O)cc1 | -5.51 |
| CCOc1ccc(/C=C/C(O)=C2/C(=O)NC3(C)CC2c2ccccc2O3)cc1OC (stereo not shown) | 6.96 |
| CC(=O)c1cccc(Nc2nc(-c3sc(N)nc3C)cs2)c1 | 10.8 |
| CCOC(=O)C1=C(C)NC(=S)NC1c1ccsc1 (stereo not shown) | 4.51 |
| CN(C)c1nc(Nc2ccccc2)nc(Oc2ccc(=O)[nH]n2)n1 | 20.5 |
| CCOc1cc(CNCc2cccs2)cc(Br)c1OC.Cl | 5.38 |
| CN(NC(=O)c1ccccc1)c1ncc(C(F)(F)F)cc1Cl | 15.6 |
| Cc1ccccc1Cn1c(C)nc2ccc([N+](=O)[O-])cc2c1=O | 14.2 |
| CCC(C)(C)NC(=O)C(c1ccc(C)cc1)N(CCN1CCOCC1)C(=O)CNC(=O)c1cccs1 (stereo not shown) | 12.4 |
| Cc1cc(C(c2ccc(C)o2)c2ccc(C)o2)c(O)c([N+](=O)[O-])c1 | 8.53 |
| COCCN(C(=O)CCSc1ccc(F)cc1)c1c(N)n(Cc2ccccc2)c(=O)[nH]c1=O | -0.304 |
| COc1cccc(C(=O)NC(=S)Nc2nnn(C)n2)c1 | 10.9 |
| COc1cc(-c2cc(=O)c3c(O)c(OC)c(OC)c(OC)c3o2)cc(OC)c1OC | 12.5 |
| CCCCOc1cccc(-c2cc(C(=O)NNC(=S)NCC)c3ccccc3n2)c1 | 12.1 |
| O=[N+]([O-])c1cncc([N+](=O)[O-])c1Nc1cccc(O)c1 | 12.9 |
| CC1=NNC(=O)C1C(c1ccccc1)C(C#N)C#N (stereo not shown) | 10.6 |
